# Measured values from the supplement of paper PMC7826260.
# The list shows a part of the results. Each Rep nickase domain was tested in vitro on the same pool of single strands (1 h at 37 °C, 3 µM enzyme); the outer parts of the 90-letter strands are left off. Numbers give uncut DNA relative to the enzyme-free pool, as log2; more negative means more cut, near 0 not cut, and no call is made. The scaling is to total reads; uncut strands gain when others are lost, and binding without cutting may add a little.
# How the values were obtained:
# Assay in all cases: uncleaved DNA left, log2 of reads against the no-enzyme library (log2 ratio); higher = less cleavage (more negative = more Rep cleavage of the k-mer); sequences stand for … in CTCGTCCG…ACCGGAGA
# [1] = tested on: T1, Rep nickase domain of Muscovy duck circovirus
# T1 sequence (Rep 1-111, printed without the tag): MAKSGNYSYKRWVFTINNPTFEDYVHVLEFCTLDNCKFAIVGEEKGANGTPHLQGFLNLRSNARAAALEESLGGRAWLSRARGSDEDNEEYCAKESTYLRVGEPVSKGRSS
# Experimental: (§1)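 A pool of 90-nt single-stranded DNAs with seven random bases just before the constant AC of the nick site (name = the seven bases) was cut by 3 µM recombinant His6-SUMO-tagged Rep nickase domain (300 nM DNA, 50 mM HEPES pH 8.0, 50 mM NaCl, 1 mM MnCl2, 1 h, 37 °C, three replicates). Uncut DNA was amplified and sequenced.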
# [2] = tested on: T2, Rep nickase domain of banana bunchy top virus
# T2 sequence (Rep 1-94, printed without the tag): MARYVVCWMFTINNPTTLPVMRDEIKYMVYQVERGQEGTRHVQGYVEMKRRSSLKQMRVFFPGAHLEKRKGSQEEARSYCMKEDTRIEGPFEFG
# Experimental: as §1
# [3] = tested on: T3, Rep nickase domain of cabbage leaf curl virus
# T3 sequence (Rep 1-116, printed without the tag): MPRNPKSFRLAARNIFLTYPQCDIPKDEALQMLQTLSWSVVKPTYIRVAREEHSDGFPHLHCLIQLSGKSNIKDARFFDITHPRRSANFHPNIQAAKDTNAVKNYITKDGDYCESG
# Experimental: as §1
# [4] = tested on: T4, Rep nickase domain of chickpea chlorotic dwarf virus
# T4 sequence (Rep 1-124, printed without the tag): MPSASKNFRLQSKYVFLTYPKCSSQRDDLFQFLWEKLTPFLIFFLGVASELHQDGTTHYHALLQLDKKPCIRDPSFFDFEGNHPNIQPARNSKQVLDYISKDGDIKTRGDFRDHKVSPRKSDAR
# Experimental: as §1
# [5] = tested on: T5, Rep nickase domain of faba bean necrotic yellows virus
# T5 sequence (Rep 1-98, printed without the tag): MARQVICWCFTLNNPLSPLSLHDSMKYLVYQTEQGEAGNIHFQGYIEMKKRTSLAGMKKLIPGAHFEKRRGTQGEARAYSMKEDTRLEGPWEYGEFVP
# Experimental: as §1
# [6] = tested on: T6, Rep nickase domain of maize striate mosaic virus
# T6 sequence (Rep 1-117, printed without the tag): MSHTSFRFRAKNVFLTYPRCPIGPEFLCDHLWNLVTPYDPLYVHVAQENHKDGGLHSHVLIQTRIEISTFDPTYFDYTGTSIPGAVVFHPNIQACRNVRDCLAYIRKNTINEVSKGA
# Experimental: as §1
# [7] = tested on: T7, Rep nickase domain of porcine circovirus 2
# T7 sequence (Rep 2-116, printed without the tag): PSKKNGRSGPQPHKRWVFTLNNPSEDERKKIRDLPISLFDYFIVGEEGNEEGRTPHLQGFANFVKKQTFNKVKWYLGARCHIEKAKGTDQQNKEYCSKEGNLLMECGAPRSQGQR
# Experimental: as §1
# [8] = tested on: T8, Rep nickase domain of tomato golden mosaic virus
# T8 sequence (Rep 1-124, printed without the tag): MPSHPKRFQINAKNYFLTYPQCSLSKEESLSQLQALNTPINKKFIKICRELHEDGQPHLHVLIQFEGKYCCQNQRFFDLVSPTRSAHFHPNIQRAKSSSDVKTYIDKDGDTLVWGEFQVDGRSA
# Experimental: as §1
# [9] = tested on: T9, Rep nickase domain of tomato yellow leaf curl virus
# T9 sequence (Rep 1-136, printed without the tag): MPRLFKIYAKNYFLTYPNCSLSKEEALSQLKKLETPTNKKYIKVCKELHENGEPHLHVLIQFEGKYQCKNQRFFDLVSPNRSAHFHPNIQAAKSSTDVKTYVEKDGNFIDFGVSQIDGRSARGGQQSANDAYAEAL
# Experimental: as §1
# [10] = tested on: T10, Rep nickase domain of wheat dwarf virus
# T10 sequence (Rep 1-137, printed without the tag): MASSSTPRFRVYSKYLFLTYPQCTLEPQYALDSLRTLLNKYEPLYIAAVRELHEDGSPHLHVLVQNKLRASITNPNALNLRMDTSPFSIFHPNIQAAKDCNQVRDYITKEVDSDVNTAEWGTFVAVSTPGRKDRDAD
# Experimental: as §1
Sequence,uncleaved DNA left (log2) [1],uncleaved DNA left (log2) [2],uncleaved DNA left (log2) [3],uncleaved DNA left (log2) [4],uncleaved DNA left (log2) [5],uncleaved DNA left (log2) [6],uncleaved DNA left (log2) [7],uncleaved DNA left (log2) [8],uncleaved DNA left (log2) [9],uncleaved DNA left (log2) [10]
ACCATCC,-0.0164,0.0206,-0.266,-0.393,0.171,-0.9,0.136,0.0333,-0.0169,-0.0446
TTTCCGA,0.1,0.0837,0.26,0.163,0.0813,-0.122,0.0889,-0.0481,0.108,0.0557
GGGAGAC,0.0367,0.0145,0.793,1.97,-0.126,2.2,0.151,-0.0335,0.041,0.103
GGAATGG,0.116,0.0691,0.406,0.91,0.0761,0.67,0.136,0.0655,0.0754,0.11
TACACGG,0.0722,0.138,0.576,1.57,0.0519,1.97,0.159,0.205,0.0378,0.226
TTGAGAA,-0.0034,-0.112,-0.00947,0.0112,0.00104,-0.681,-0.261,-0.0893,-0.0281,-0.0264
CAATCAC,0.00305,0.117,-1.82,-1.97,0.0215,-0.746,0.0922,-0.336,0.0508,-0.32
TATACGT,0.0306,-0.123,0.174,-0.373,-0.00118,0.228,-0.142,0.00118,0.00653,-0.0694
ATATTCT,-3.15,-0.178,-1.17,-2.84,-0.0244,-1.15,-3.22,-0.254,-0.0987,-0.249
CGTCGTC,0.0685,0.0249,-0.000863,-0.0715,0.0229,-0.443,0.0517,-0.133,0.084,0.0689
GGGTGAC,0.092,0.214,0.821,1.95,0.13,2.28,0.26,0.177,0.112,0.227
AGACAGA,0.015,0.0903,0.628,1.3,0.053,1.44,0.102,0.034,0.0351,0.0842
AAGTAGC,0.228,0.077,-0.277,-0.361,0.154,-1,-0.323,0.137,0.202,0.243
AGCATCT,-0.0719,0.0776,-0.011,-0.592,0.0235,0.684,-0.384,0.0798,-0.00394,0.135
TCCGGTT,0.0326,-0.143,0.358,0.117,-0.0617,1.07,0.0498,0.0739,-0.00677,-0.0216
